{"source": "PubChem BioAssay AID504332", "about": "(National Center for Advancing Translational Sciences (NCATS), 2011)", "note": "Among all 350,000 compounds or so, about 31,000 (8.9%) were called active. Inconclusive means that the source gave no clear call. Such entries were picked first, then a sample of the others. Calls come from the whole dose curve; as a rule, active = well fitted inhibition curve with a large enough effect; inconclusive = small, poorly fitted or top-dose-only effect; inactive = no such curve, though single readings can be large or run the other way. Potencies of inconclusive entries are doubtful fits and often do not repeat. % is set by controls: 0 for no effect and ±100 for the full control effect; potency is the fitted concentration of half-maximal effect; tags give direction and shape of the fitted curve.", "data": [{"target": "Histone-lysine N-methyltransferase EHMT2 (Homo sapiens) (UniProt Q96KQ7)", "sequence (Q96KQ7 whole entry, looked up)": "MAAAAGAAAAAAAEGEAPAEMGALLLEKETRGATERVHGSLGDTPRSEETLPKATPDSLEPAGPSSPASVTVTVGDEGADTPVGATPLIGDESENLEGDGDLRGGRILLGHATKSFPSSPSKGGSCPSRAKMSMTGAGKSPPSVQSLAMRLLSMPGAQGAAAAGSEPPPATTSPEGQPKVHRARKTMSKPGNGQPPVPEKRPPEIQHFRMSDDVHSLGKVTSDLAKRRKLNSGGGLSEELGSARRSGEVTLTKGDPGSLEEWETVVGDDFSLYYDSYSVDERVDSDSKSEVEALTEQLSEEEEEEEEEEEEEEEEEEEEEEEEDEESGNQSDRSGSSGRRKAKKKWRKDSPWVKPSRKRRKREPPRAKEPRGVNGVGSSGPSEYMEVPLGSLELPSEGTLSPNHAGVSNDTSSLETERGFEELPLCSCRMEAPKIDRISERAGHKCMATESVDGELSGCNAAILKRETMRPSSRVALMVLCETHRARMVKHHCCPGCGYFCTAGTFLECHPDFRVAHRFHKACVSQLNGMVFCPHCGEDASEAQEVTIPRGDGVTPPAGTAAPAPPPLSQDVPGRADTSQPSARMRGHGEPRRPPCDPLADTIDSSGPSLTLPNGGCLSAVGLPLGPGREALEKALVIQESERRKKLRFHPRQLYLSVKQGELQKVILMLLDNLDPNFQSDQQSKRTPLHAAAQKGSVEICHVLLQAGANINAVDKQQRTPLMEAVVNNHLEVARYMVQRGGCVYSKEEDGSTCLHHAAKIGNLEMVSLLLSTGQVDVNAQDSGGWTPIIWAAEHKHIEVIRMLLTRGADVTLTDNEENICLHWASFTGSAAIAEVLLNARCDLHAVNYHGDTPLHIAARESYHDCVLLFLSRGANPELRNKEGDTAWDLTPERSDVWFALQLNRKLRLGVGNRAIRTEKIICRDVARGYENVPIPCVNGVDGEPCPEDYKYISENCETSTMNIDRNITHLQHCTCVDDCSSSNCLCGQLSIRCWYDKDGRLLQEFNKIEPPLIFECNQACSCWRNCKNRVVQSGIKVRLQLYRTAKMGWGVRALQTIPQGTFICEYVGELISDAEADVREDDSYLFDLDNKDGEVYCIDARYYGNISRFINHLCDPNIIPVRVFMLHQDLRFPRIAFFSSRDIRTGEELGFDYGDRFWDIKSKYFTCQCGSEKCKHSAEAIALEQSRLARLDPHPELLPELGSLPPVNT", "experiment": "qHTS Assay for Inhibitors of Histone Lysine Methyltransferase G9a; note: nearly all actives have a fitted effect of over 75% in size", "details": "G9a H3K9 monomethylation, AlphaScreen, 2 h; activity, negative = inhibition: at 59 µM (top of the series) unless noted", "method_in_brief": "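AlphaScreen read-out: biotin-H3K9 peptide (500 nM) methylation by 20 nM enzyme with 20 uM SAM, 2 h at room temperature after 15 min compound preincubation; anti-monomethyl H3K9 antibody plus donor/acceptor beads, 10 min dark.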", "values": [{"smiles": "CCOC(=O)c1c(C)nc2c(c1-c1ccccc1)C(=O)c1ccccc1-2", "Potency": "inactive"}, {"smiles": "O=c1[nH]c(-c2ccccc2F)nc2c1sc(=S)n2Cc1ccccc1", "Potency": "inconclusive: 17.8 µM [inhibitor, single point]"}, {"smiles": "Clc1ccc(OCc2nnc(SCc3nc4ccccc4[nH]3)n2Cc2ccco2)cc1", "Potency": "active: 39.8 µM"}, {"smiles": "Cc1ccc(C)c(NC(=S)NNC(=O)c2ccc(Br)o2)c1", "Potency": "inconclusive: 70.8 µM [inhibitor, single point]"}, {"smiles": "COc1ccc(/C=N/NC(=O)c2cccnc2)cc1COc1ccc(NC(C)=O)cc1", "Potency": "inconclusive: 100 µM [inhibitor, single point]"}, {"smiles": "CN(C)S(=O)(=O)c1ccc(C(=O)NNc2nc(-c3ccccc3)c3cc(Br)ccc3n2)cc1", "Potency": "inactive"}, {"smiles": "C=CCn1c(Cc2ccccc2)nc2c(cnn2-c2ccccc2)c1=O", "Potency": "inconclusive: 31.6 µM [inhibitor, single point]"}, {"smiles": "CCn1c(CNc2ccccc2Cl)nnc1SCC(=O)OC1CCCCC1", "Potency": "inconclusive: 56.2 µM [inhibitor, partial curve]"}, {"smiles": "C#CCOCCOCCOCCNc1nc(N2CCN(C(=O)[C@H](Cc3ccc(O)cc3)n3cc([C@@H](N)C(C)CC)nn3)CC2)nc(N2CCN(C(=O)[C@H](Cc3cc4ccccc4[nH]3)n3cc([C@@H](N)CC(C)C)nn3)CC2)n1", "note": "(some centres not stated)", "activity, negative = inhibition": "inconclusive: -94.1% [inhibitor]"}, {"smiles": "Cc1ccc(C(=O)Nc2cc3c(cc2N2CCCC2)n(C)c(=O)c(=O)n3C)cc1", "Potency": "inconclusive: 39.8 µM [inhibitor, single point]"}, {"smiles": "COc1cc(NC(=O)COCc2cc(-c3ccc(F)cc3)on2)cc(OC)c1OC", "Potency": "inconclusive: 14.1 µM [inhibitor, partial curve, poor fit]"}, {"smiles": "CCN1CCN(C(=O)NC2CC(=O)N(c3ccc(OC)cc3)C2)CC1", "note": "(configuration not stated)", "Potency": "inconclusive: 89.1 µM [inhibitor, single point]"}, {"smiles": "C[C@@H](C(=O)N1CCNCC1)n1cc(CCCN=C(N)N)nn1", "activity, negative = inhibition": "inconclusive: -99.7% [inhibitor]"}, {"smiles": "O=C(NNC(=S)Nc1ccccc1)c1ccc2ncccc2c1", "Potency": "active: 28.2 µM"}, {"smiles": "COc1ccc(NC(=O)C(=O)NCC(c2ccco2)N2CCc3ccccc3C2)cc1OC", "note": "(configuration not stated)", "activity, negative = inhibition": "inactive: -12.9% [at 2.33 µM]"}, {"smiles": "COc1cc2c(cc1OC)C(c1c(Cl)cccc1Cl)NC(=O)C2", "note": "(configuration not stated)", "Potency": "inconclusive: 89.1 µM [inhibitor, single point]"}, {"smiles": "Cc1ccc(S(=O)(=O)Cc2ccc(C(=O)N3CCC(C(N)=O)CC3)o2)cc1", "Potency": "inconclusive: 0.891 µM [inhibitor, full curve, poor fit]"}, {"smiles": "CCN(CC(=O)NCCc1ccc(S(N)(=O)=O)cc1)Cc1nc2cc(OC)c(OC)cc2c(=O)[nH]1", "Potency": "inconclusive: 1 µM [inhibitor, full curve, poor fit]"}, {"smiles": "Fc1ccc(N2CCN(Cc3ccccn3)CC2)cc1", "Potency": "active: 3.55 µM"}, {"smiles": "O=C(CCl)NCCN1C(=O)S/C(=C\\c2cccnc2)C1=O", "Potency": "inconclusive: 89.1 µM [inhibitor, single point]"}, {"smiles": "CCN(CC)S(=O)(=O)c1ccc(C(=O)NCCSc2c[nH]c3ccccc23)cc1", "Potency": "inconclusive: 70.8 µM [inhibitor, single point]"}, {"smiles": "N#CCCN(Cc1cccnc1)C(=S)NCc1ccco1", "Potency": "active: 20 µM"}, {"smiles": "Cc1ccc(-n2c(SCC(=O)O)nc3sc4c(c3c2=O)CCCC4)cc1", "Potency": "inactive"}, {"smiles": "Cc1ccc(C(=O)Oc2coc(CSc3nnc(NC(=O)C4CC4)s3)cc2=O)cc1", "Potency": "inconclusive: 89.1 µM [inhibitor, single point]"}, {"smiles": "C[C@@H](O)C1NC(=O)[C@H](CCCCN)NC(=O)c2cc([N+](=O)[O-])cc(F)c2NCCCC[C@@H](C(N)=O)NC1=O", "note": "(some centres not stated)", "Potency": "inconclusive: 89.1 µM [inhibitor, single point]"}, {"smiles": "CC(NS(=O)(=O)/C=C/c1ccccc1)C(=O)O", "note": "(configuration not stated)", "Potency": "inconclusive: 89.1 µM [inhibitor, single point]"}, {"smiles": "CC1(C)CC(C)(O)N(Cc2ccccc2)C(=S)N1", "note": "(configuration not stated)", "Potency": "inactive"}, {"smiles": "CCn1c(=O)[nH]c2ccccc2c1=O", "Potency": "inactive"}, {"smiles": "COc1ccc(NC(=O)CN(c2ccc(C)cc2)S(=O)(=O)c2cccc3nonc23)cc1OC", "Potency": "inconclusive: 10 µM [inhibitor, partial curve, poor fit]"}, {"smiles": "CCOc1ccc(OCC)c(NS(=O)(=O)c2c(C(=O)N3CCC(C)CC3)c(C)n(C)c2C)c1", "Potency": "inactive"}, {"smiles": "O=C(N/N=C/c1ccc(O)c(O)c1)N/N=C/c1ccc(O)c(O)c1", "Potency": "active: 44.7 µM"}, {"smiles": "CC1Cc2cc(/C(O)=C3/C(=O)C(=O)N(CCN4CCOCC4)C3c3ccc(N(C)C)cc3)ccc2O1", "note": "(configuration not stated)", "Potency": "inconclusive: 79.4 µM [inhibitor, single point]"}, {"smiles": "COc1ccc(S(=O)(=O)NC2CCCC2)c(Cl)c1Cl", "Potency": "inactive"}, {"smiles": "O=C(COC(=O)CCc1ccccc1)NCc1ccccc1", "activity, negative = inhibition": "inactive: -5.69% [at 12.7 µM]"}, {"smiles": "COc1ccc(C(=O)NC(NC(=O)c2ccc(OC)cc2)c2ccccc2F)cc1", "Potency": "inconclusive: 39.8 µM [inhibitor, partial curve]"}, {"smiles": "CCCn1nnnc1NCc1ccccc1OCC", "Potency": "active: 35.5 µM"}, {"smiles": "COc1cccc(N2CC(C(=O)Nc3nnc(SCC(=O)N4CCCC4)s3)CC2=O)c1", "note": "(configuration not stated)", "Potency": "inconclusive: 79.4 µM [inhibitor, partial curve, poor fit]"}, {"smiles": "COCCN1C(=O)C(O)=C(C(=O)c2ccco2)C1c1cccc(Oc2ccccc2)c1", "note": "(configuration not stated)", "Potency": "inconclusive: 14.1 µM [inhibitor, partial curve, poor fit]"}, {"smiles": "O=c1ccc(-c2ccc(S(=O)(=O)Nc3cccc([N+](=O)[O-])c3)s2)n[nH]1", "Potency": "active: 70.8 µM"}, {"smiles": "N#C/C(=C\\c1ccc[nH]1)Sc1nc2ccccc2s1", "Potency": "inconclusive: 79.4 µM [inhibitor, single point]"}, {"smiles": "CN(CC(=O)Nc1ccccc1Br)C(=O)c1ccc(COc2ccccc2)cc1", "Potency": "inactive"}, {"smiles": "Oc1ccc(C=Nc2cccc3ccccc23)c(O)c1", "Potency": "inconclusive: 0.891 µM [inhibitor, full curve, poor fit]"}, {"smiles": "Cc1ccc(S(=O)(=O)NCCN=C(CN2CCOCC2)NS(=O)(=O)c2ccc(C)cc2)cc1", "Potency": "inconclusive: 89.1 µM [inhibitor, single point]"}, {"smiles": "COc1ccc(N2CCN(C(=O)COC(=O)COc3cc(C)cc(C)c3)CC2)cc1", "Potency": "active: 31.6 µM"}, {"smiles": "Cc1n[nH]c(=O)c2c(NC(=O)COC(=O)/C=C/c3cccc(C(F)(F)F)c3)oc(C)c12", "Potency": "active: 10 µM"}, {"smiles": "CN(C)CCCNC(=O)c1cc(C(=O)Cc2ccccc2)c[nH]1", "Potency": "inconclusive: 0.398 µM [inhibitor, partial curve, poor fit]"}, {"smiles": "Cc1nn(C(C)C(=O)Nc2sc3c(c2C#N)CCCC3)c(C)c1[N+](=O)[O-]", "note": "(configuration not stated)", "Potency": "inconclusive: 50.1 µM [inhibitor, partial curve, poor fit]"}, {"smiles": "COC(=O)C(C)Sc1nc2c([nH]c3ccccc32)c(=O)n1C", "note": "(configuration not stated)", "activity, negative = inhibition": "inconclusive: -72.3% [inhibitor]"}, {"smiles": "Cc1cc(C)nc(NN2C(=O)/C(=C/c3ccccc3)SC2=S)n1", "Potency": "active: 39.8 µM"}, {"smiles": "COc1ccc(NC(=O)C2CCCCN2CC(=O)OCc2ccccc2)cc1OC", "note": "(configuration not stated)", "Potency": "inconclusive: 89.1 µM [inhibitor, partial curve, poor fit]"}, {"smiles": "COc1ccc(C(NC(=O)C(C)(C)C)NC(=O)C(C)(C)C)cc1", "Potency": "inactive"}, {"smiles": "C/C(CC(=O)NC(C)C)=N\\NC(=O)C(c1ccccc1)c1ccccc1", "Potency": "inactive"}, {"smiles": "CC(C)C(=O)NNC(=O)CC(=O)Nc1ccccc1C(=O)O", "Potency": "inconclusive: 50.1 µM [inhibitor, partial curve, poor fit]"}, {"smiles": "O=C(COC(=O)c1ccccn1)Nc1nc(-c2cccc([N+](=O)[O-])c2)cs1", "Potency": "inactive"}, {"smiles": "Cc1cccc(-n2c(=O)c3ccccc3n3c(=S)[nH]nc23)c1C", "Potency": "active: 1.12 µM"}, {"smiles": "CC(C)N1C(=S)N(Cc2ccco2)C(=O)C1CC(=O)Nc1ccccc1", "note": "(configuration not stated)", "Potency": "active: 50.1 µM"}, {"smiles": "Cc1cc(/C=N/NC(=O)c2ccncc2)c(C)n1-c1cccc(C(F)(F)F)c1", "Potency": "inconclusive: 70.8 µM [inhibitor, partial curve]"}, {"smiles": "O=C(CSc1nnc(NC(=O)c2ccccc2F)s1)NC1CCCC1", "Potency": "inconclusive: 89.1 µM [inhibitor, partial curve, poor fit]"}, {"smiles": "COc1ccc(C(=O)NCCCNC(=O)c2cnccn2)cc1Br", "Potency": "inconclusive: 7.08 µM [inhibitor, partial curve, poor fit]"}, {"smiles": "CCOC(=O)N1CCC2(CC1)NCCc1c2[nH]c2ccccc12", "Potency": "inconclusive: 70.8 µM [inhibitor, partial curve, poor fit]"}, {"smiles": "O=C(Oc1ccc(C(=S)N2CCOCC2)cc1)c1cc([N+](=O)[O-])cc([N+](=O)[O-])c1", "Potency": "active: 35.5 µM"}, {"smiles": "Cc1cc(NC(=O)C(C)SCC(=O)OC(C)C(=O)Nc2cccc(C#N)c2)no1", "note": "(configuration not stated)", "Potency": "inconclusive: 56.2 µM [inhibitor, partial curve, poor fit]"}, {"smiles": "COc1cc2c(cc1OC)CN(Cc1cc(=O)oc3cc(C)c(C)cc13)CC2", "Potency": "active: 7.94 µM"}, {"smiles": "COc1cccc(CC2(CO)CCCN(Cc3cc(F)ccc3-n3cccn3)C2)c1", "note": "(configuration not stated)", "Potency": "inconclusive: 17.8 µM [inhibitor, partial curve, poor fit]"}, {"smiles": "Cc1ccc(-n2c(C)cc(/C=N/NC(N)=S)c2C)cc1", "Potency": "inconclusive: 25.1 µM [inhibitor, single point]"}, {"smiles": "COc1ccccc1CNc1ccc(-c2nc(-c3ccco3)no2)cc1[N+](=O)[O-]", "Potency": "inconclusive: 39.8 µM [inhibitor, partial curve, poor fit]"}, {"smiles": "CCOc1ccccc1NC(=O)Cn1cc(C(=O)c2ccc(Cl)cc2)c(=O)c2ccc(C)nc21", "Potency": "inactive"}]}]}
